# Measurements as given in the supplement of paper PMC8728848.
# This is one part of the list.
# B1: SefD (Salmonella enterica), Q9L6K6 (protein)
# chain: GAYIIRGQNNSAHKLRIRIGGEDWQPDNSGIGMVSHSDFTNEFNIYYFGNGDIPVDTYLISIYATEIEL
# Experiments:
# Test in all cases: glycan array binding signal (z-score within array); higher = stronger binding
# Conditions in all cases: glycan notation: IUPAC condensed, linker removed
# GalNAc(b1-6)GalNAc = target: GalNAc(b1-6)GalNAc
# Outline: (§1)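 Arrays were curated from the Consortium for Functional Glycomics database, 3228 in total, and kept only where the protein sequence was available. Binding is expressed as a within-array Z-score. This score was averaged across arrays of the same protein sequence at different concentrations or buffers and across linkers, and negative values can be read as non-binding.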
# Glc(a1-4)Glc = target: Glc(a1-4)Glc
# Outline: as §1
# [1] = target: Glc(a1-4)Glc(a1-4)Glc(a1-4)Glc
# Outline: as §1
# Glc(a1-6)Glc(a1-6)Glc = target: Glc(a1-6)Glc(a1-6)Glc
# Outline: as §1
# [2] = target: Glc(a1-6)Glc(a1-6)Glc(a1-6)Glc
# Outline: as §1
# Glc(b1-4)Glc = target: Glc(b1-4)Glc
# Outline: as §1
# Glc(b1-6)Glc = target: Glc(b1-6)Glc
# Outline: as §1
# GlcA(b1-3)Gal = target: GlcA(b1-3)Gal
# Outline: as §1
# GlcA(b1-3)GlcNAc = target: GlcA(b1-3)GlcNAc
# Outline: as §1
# GlcA(b1-6)Gal = target: GlcA(b1-6)Gal
# Outline: as §1
# [3] = target: GlcNAc(a1-3)Gal(b1-4)GlcNAc
# Outline: as §1
# [4] = target: GlcNAc(a1-4)Gal(b1-3)GlcNAc
# Outline: as §1
# [5] = target: GlcNAc(a1-4)Gal(b1-4)GalNAc
# Outline: as §1
# [6] = target: GlcNAc(a1-4)Gal(b1-4)GlcNAc
# Outline: as §1
# [7] = target: GlcNAc(a1-4)Gal(b1-4)GlcNAc(b1-3)Gal(b1-4)Glc
# Outline: as §1
# [8] = target: GlcNAc(a1-4)Gal(b1-4)GlcNAc(b1-3)Gal(b1-4)GlcNAc
# Outline: as §1
# [9] = target: GlcNAc(a1-4)Gal(b1-4)GlcNAc(b1-3)Gal(b1-4)GlcNAc(b1-3)Gal(b1-4)GlcNAc
# Outline: as §1
# [10] = target: GlcNAc(a1-4)Gal(b1-4)GlcNAc(b1-3)Gal(b1-4)[Fuc(a1-3)]GlcNAc(b1-3)Gal(b1-4)[Fuc(a1-3)]GlcNAc
# Outline: as §1
# [11] = target: GlcNAc(a1-6)Gal(b1-4)GlcNAc
# Outline: as §1
# [12] = target: GlcNAc(b1-2)Gal(b1-3)GalNAc
# Outline: as §1
# [13] = target: GlcNAc(b1-2)Man(a1-3)[GlcNAc(b1-2)Man(a1-6)]Man(b1-4)GlcNAc(b1-4)GlcNAc
# Outline: as §1
# [14] = target: GlcNAc(b1-2)Man(a1-3)[GlcNAc(b1-2)Man(a1-6)]Man(b1-4)GlcNAc(b1-4)[Fuc(a1-6)]GlcNAc
# Outline: as §1
# [15] = target: GlcNAc(b1-2)Man(a1-3)[GlcNAc(b1-4)][GlcNAc(b1-2)Man(a1-6)]Man(b1-4)GlcNAc(b1-4)GlcNAc
# Outline: as §1
# [16] = target: GlcNAc(b1-2)[GlcNAc(b1-4)]Man(a1-3)[GlcNAc(b1-2)Man(a1-6)]Man(b1-4)GlcNAc(b1-4)GlcNAc
# Outline: as §1
# [17] = target: GlcNAc(b1-2)[GlcNAc(b1-4)]Man(a1-3)[GlcNAc(b1-4)][GlcNAc(b1-2)Man(a1-6)]Man(b1-4)GlcNAc(b1-4)GlcNAc
# Outline: as §1
# [18] = target: GlcNAc(b1-2)[GlcNAc(b1-4)]Man(a1-3)[GlcNAc(b1-4)][GlcNAc(b1-2)[GlcNAc(b1-6)]Man(a1-6)]Man(b1-4)GlcNAc(b1-4)GlcNAc
# Outline: as §1
# [19] = target: GlcNAc(b1-2)[GlcNAc(b1-6)]Man(a1-6)[GlcNAc(b1-2)Man(a1-3)]Man(b1-4)GlcNAc(b1-4)GlcNAc
# Outline: as §1
# [20] = target: GlcNAc(b1-2)[GlcNAc(b1-6)]Man(a1-6)[GlcNAc(b1-2)Man(a1-3)][GlcNAc(b1-4)]Man(b1-4)GlcNAc(b1-4)GlcNAc
# Outline: as §1
# GlcNAc(b1-3)Gal = target: GlcNAc(b1-3)Gal
# Outline: as §1
# [21] = target: GlcNAc(b1-3)Gal(b1-3)GalNAc
# Outline: as §1
# GlcNAc(b1-3)Gal(b1-4)Glc = target: GlcNAc(b1-3)Gal(b1-4)Glc
# Outline: as §1
# [22] = target: GlcNAc(b1-3)Gal(b1-4)GlcNAc
# Outline: as §1
# [23] = target: GlcNAc(b1-3)Gal(b1-4)GlcNAc(b1-3)Gal(b1-4)GlcNAc
# Outline: as §1
# GlcNAc(b1-3)GalNAc = target: GlcNAc(b1-3)GalNAc
# Outline: as §1
# GlcNAc(b1-3)Man = target: GlcNAc(b1-3)Man
# Outline: as §1
# [24] = target: GlcNAc(b1-3)[GlcNAc(b1-4)][GlcNAc(b1-6)]GlcNAc
# Outline: as §1
# [25] = target: GlcNAc(b1-3)[GlcNAc(b1-6)]Gal(b1-4)GlcNAc
# Outline: as §1
# [26] = target: GlcNAc(b1-3)[GlcNAc(b1-6)]GalNAc
# Outline: as §1
# [27] = target: GlcNAc(b1-4)Gal(b1-4)GlcNAc
# Outline: as §1
# GlcNAc(b1-4)GlcNAc = target: GlcNAc(b1-4)GlcNAc
# Outline: as §1
# [28] = target: GlcNAc(b1-4)GlcNAc(b1-4)GlcNAc
# Outline: as §1
# [29] = target: GlcNAc(b1-4)GlcNAc(b1-4)GlcNAc(b1-4)GlcNAc(b1-4)GlcNAc
# Outline: as §1
# [30] = target: GlcNAc(b1-4)GlcNAc(b1-4)GlcNAc(b1-4)GlcNAc(b1-4)GlcNAc(b1-4)GlcNAc
# Outline: as §1
# [31] = target: GlcNAc(b1-4)[GlcNAc(b1-6)]GalNAc
# Outline: as §1
# [32] = target: GlcNAc(b1-6)Gal(b1-4)GlcNAc
# Outline: as §1
binder,measurement,setting,value
B1,glycan array binding signal (z-score),GalNAc(b1-6)GalNAc,-0.546
same,glycan array binding signal (z-score),Glc(a1-4)Glc,-0.273
same,glycan array binding signal (z-score),[1],-0.307
same,glycan array binding signal (z-score),Glc(a1-6)Glc(a1-6)Glc,0.204
same,glycan array binding signal (z-score),[2],-0.319
same,glycan array binding signal (z-score),Glc(b1-4)Glc,-0.125
same,glycan array binding signal (z-score),Glc(b1-6)Glc,-0.464
same,glycan array binding signal (z-score),GlcA(b1-3)Gal,-0.456
same,glycan array binding signal (z-score),GlcA(b1-3)GlcNAc,-0.236
same,glycan array binding signal (z-score),GlcA(b1-6)Gal,-0.424
same,glycan array binding signal (z-score),[3],-0.375
same,glycan array binding signal (z-score),[4],-0.302
same,glycan array binding signal (z-score),[5],-0.351
same,glycan array binding signal (z-score),[6],-0.304
same,glycan array binding signal (z-score),[7],-0.529
same,glycan array binding signal (z-score),[8],1.45
same,glycan array binding signal (z-score),[9],-0.4
same,glycan array binding signal (z-score),[10],-0.231
same,glycan array binding signal (z-score),[11],-0.083
same,glycan array binding signal (z-score),[12],-0.217
same,glycan array binding signal (z-score),[13],0.117
same,glycan array binding signal (z-score),[14],-0.396
same,glycan array binding signal (z-score),[15],-0.112
same,glycan array binding signal (z-score),[16],-0.587
same,glycan array binding signal (z-score),[17],-0.079
same,glycan array binding signal (z-score),[18],0.465
same,glycan array binding signal (z-score),[19],-0.45
same,glycan array binding signal (z-score),[20],0.138
same,glycan array binding signal (z-score),GlcNAc(b1-3)Gal,-0.349
same,glycan array binding signal (z-score),[21],-0.29
same,glycan array binding signal (z-score),GlcNAc(b1-3)Gal(b1-4)Glc,-0.244
same,glycan array binding signal (z-score),[22],-0.394
same,glycan array binding signal (z-score),[23],-0.39
same,glycan array binding signal (z-score),GlcNAc(b1-3)GalNAc,-0.427
same,glycan array binding signal (z-score),GlcNAc(b1-3)Man,0.855
same,glycan array binding signal (z-score),[24],-0.392
same,glycan array binding signal (z-score),[25],-0.371
same,glycan array binding signal (z-score),[26],-0.43
same,glycan array binding signal (z-score),[27],0.874
same,glycan array binding signal (z-score),GlcNAc(b1-4)GlcNAc,0.15
same,glycan array binding signal (z-score),[28],-0.059
same,glycan array binding signal (z-score),[29],0.017
same,glycan array binding signal (z-score),[30],-0.363
same,glycan array binding signal (z-score),[31],-0.55
same,glycan array binding signal (z-score),[32],-0.289
